The values below come from publication PMC4336329 (PLoS ONE, 2015).

The structures appear in SMILES notation. Hit rate of the full screen: of about 310,000 compounds, about 2,200 (0.71%) showed an effect of 50% or more. The effect is printed as a negative number. The list shows a part of the results.

Sequence of human ether-à-go-go-related gene (hERG) potassium channel (Q12809 whole entry, looked up): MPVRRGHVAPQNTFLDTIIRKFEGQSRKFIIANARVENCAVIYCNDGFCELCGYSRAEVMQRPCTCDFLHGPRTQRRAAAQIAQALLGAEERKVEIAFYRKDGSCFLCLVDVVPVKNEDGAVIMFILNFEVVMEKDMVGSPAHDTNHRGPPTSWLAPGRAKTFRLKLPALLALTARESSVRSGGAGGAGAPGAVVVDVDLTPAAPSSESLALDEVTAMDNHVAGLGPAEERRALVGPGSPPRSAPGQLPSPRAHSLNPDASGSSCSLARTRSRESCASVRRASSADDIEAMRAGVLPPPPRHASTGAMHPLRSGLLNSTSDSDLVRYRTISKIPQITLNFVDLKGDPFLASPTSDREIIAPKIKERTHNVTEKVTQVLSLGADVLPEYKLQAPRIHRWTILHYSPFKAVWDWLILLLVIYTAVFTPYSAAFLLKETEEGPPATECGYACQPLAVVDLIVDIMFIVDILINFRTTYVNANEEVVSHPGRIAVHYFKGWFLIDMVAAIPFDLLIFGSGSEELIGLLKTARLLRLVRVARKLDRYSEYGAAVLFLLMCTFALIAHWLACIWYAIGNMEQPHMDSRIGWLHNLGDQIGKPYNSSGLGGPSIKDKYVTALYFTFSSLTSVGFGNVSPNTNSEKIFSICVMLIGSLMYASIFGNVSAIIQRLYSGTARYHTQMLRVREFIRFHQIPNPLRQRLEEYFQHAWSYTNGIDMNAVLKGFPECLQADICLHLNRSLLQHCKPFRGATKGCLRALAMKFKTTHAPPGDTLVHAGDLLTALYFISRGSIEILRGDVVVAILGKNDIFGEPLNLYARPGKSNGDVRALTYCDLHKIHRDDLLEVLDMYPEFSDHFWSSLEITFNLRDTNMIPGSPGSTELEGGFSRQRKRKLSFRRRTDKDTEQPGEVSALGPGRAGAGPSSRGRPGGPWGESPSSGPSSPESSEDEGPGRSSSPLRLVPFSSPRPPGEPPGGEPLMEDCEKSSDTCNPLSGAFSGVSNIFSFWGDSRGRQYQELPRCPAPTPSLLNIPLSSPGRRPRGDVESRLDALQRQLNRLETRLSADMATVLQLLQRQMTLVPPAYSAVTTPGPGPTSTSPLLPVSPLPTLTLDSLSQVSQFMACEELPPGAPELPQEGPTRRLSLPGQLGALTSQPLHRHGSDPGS

The test addresses human ether-à-go-go-related gene (hERG) potassium channel (human, UniProt Q12809). Description: primary screen, population patch clamp on CHO cells stably expressing hERG.
`CC(C)(C)OC(=O)NCCCC[C@H](NC(=O)c1nc[nH]c1C(=O)N1CCc2ccccc2C1)C(=O)OC(C)(C)C`: the “hERG current change (%, negative = inhibition) at 1uM” value came to 3.3%.

As to `CCN(Cc1ccncc1)Cc1ccc(Br)cc1.O=C(O)C(=O)O`, the “hERG current change (%, negative = inhibition) at 1uM” value was determined as 14%.

In the case of `CN1C(=O)CC(P(=O)(c2ccccc2)c2ccccc2)N(C)C1=O` (stereo not shown), the “hERG current change (%, negative = inhibition) at 1uM” value was 10.5%.

With `CN(CC(=O)Nc1c(Cl)cccc1Cl)C(=O)c1ccccc1Cc1ccccc1`, the “hERG current change (%, negative = inhibition) at 1uM” value came out at 8.96%.

As for `COc1ccc(CCNc2oc(-c3ccc(C)cc3)nc2C#N)cc1OC`, the “hERG current change (%, negative = inhibition) at 1uM” value is 14.2%.

For the compound `CC(O)CN1C(=O)C(CC(=O)Nc2ccc(Cl)cc2)SC1=Nc1ccccc1` (stereo not shown), the “hERG current change (%, negative = inhibition) at 1uM” value was 14.1%.

Consider `COC(=O)c1c(C)[nH]c(C(=O)C(C)OC(=O)C2CC(=O)N(c3ccc(C)cc3)C2)c1C` (stereo not shown), for which the “hERG current change (%, negative = inhibition) at 1uM” value is on record as 2.54%.

For `O=C(COC(=O)Cc1ccc(S(=O)(=O)N2CCOCC2)s1)NCCc1ccccc1`, the “hERG current change (%, negative = inhibition) at 1uM” value was -2.58%.

In the case of `CN(C)CCNC(=S)NC1CCCCC1`, the “hERG current change (%, negative = inhibition) at 1uM” value was determined as 14.2%.

For the compound `CCCCC1(O)CC(C(F)(F)F)=NN1C(=O)COc1ccccc1` (stereo not shown), the “hERG current change (%, negative = inhibition) at 1uM” value came out at 6.76%.

As for `CCCOc1ccc(-c2c(C(=O)N/N=C/c3ccc(C)o3)nnn2-c2nonc2N)cc1`, the “hERG current change (%, negative = inhibition) at 1uM” value is 19.4%.

`O=C(COC(=O)[C@@H]1CCCN1S(=O)(=O)c1ccc(Cl)cc1)NC1CC1`: the “hERG current change (%, negative = inhibition) at 1uM” value was 12.1%.

Regarding `CC1(c2ccccc2Cl)NC(=O)N(CC(=O)Nc2ccc(N3CCCCC3)cc2)C1=O` (stereo not shown), the “hERG current change (%, negative = inhibition) at 1uM” value came to 2.86%.

On to `COc1ccc(/C=N/OCC(=O)Nc2nc3ccccc3s2)cc1OC`, for which the “hERG current change (%, negative = inhibition) at 1uM” value came to 15.4%.

Regarding `CCOc1ccc(-c2noc(CCC(=O)NC)n2)cc1OCC`, the “hERG current change (%, negative = inhibition) at 1uM” value is 2.24%.

In the case of `COCCCNC(=O)c1c(N)n(Cc2ccco2)c2nc3ccccc3nc12`, the “hERG current change (%, negative = inhibition) at 1uM” value is reported as 11.5%.

Consider `CC1Cc2cc(/C(O)=C3/C(=O)C(=O)N(Cc4ccco4)C3c3cccs3)ccc2O1` (stereo not shown), for which the “hERG current change (%, negative = inhibition) at 1uM” value was 1.52%.

As for `CC(CC(=O)N1CCN(c2cccc(Cl)c2)CC1)S(=O)(=O)c1ccc2c(c1)NC(=O)CO2` (stereo not shown), the “hERG current change (%, negative = inhibition) at 1uM” value is -23.8%.

Consider `O=C(O)CSc1nnc(-c2cc3ccccc3o2)n1-c1ccccc1`, for which the “hERG current change (%, negative = inhibition) at 1uM” value stood at 9.3%.

Regarding `COc1ccc2c(c1OC)C(=O)OC2n1c(O)c(N=NC(C)=O)c2ccccc21` (stereo not shown), the “hERG current change (%, negative = inhibition) at 1uM” value was 4.35%.

For the compound `O=C(CSc1ccccn1)Nc1ccc(N2CCOCC2)cc1`, the “hERG current change (%, negative = inhibition) at 1uM” value is 8%.

In the case of `CC(=O)Nn1c(C)nnc1-n1nc(C)cc1C`, the “hERG current change (%, negative = inhibition) at 1uM” value is listed as 14%.

As for `COc1cccc(/C=N/NC(=S)NCCc2ccccc2)c1OC`, the “hERG current change (%, negative = inhibition) at 1uM” value was determined as 16.3%.

Take `NC(=O)c1ccc(N=Nc2c(O)c3ccccc3[nH]c2=O)cc1`: the “hERG current change (%, negative = inhibition) at 1uM” value is reported as 8.29%.

As to `Cc1ccccc1NC(=S)c1nc2ccccc2[nH]1`, the “hERG current change (%, negative = inhibition) at 1uM” value turned out to be 12.5%.

On to `O=C(O)C1CCCN1c1nc(-c2ccc(Cl)c(Cl)c2)cc(C(F)(F)F)n1` (stereo not shown), for which the “hERG current change (%, negative = inhibition) at 1uM” value is on record as 7.97%.

Turning to `Cc1cccc(NC(=O)CN(C)S(=O)(=O)c2cccc3cccnc23)c1C`, the “hERG current change (%, negative = inhibition) at 1uM” value worked out at 4.71%.

For `CCOC(=O)c1cc(CC)sc1NC(=O)CSc1nc2ccccc2c(=O)n1Cc1ccco1`, the “hERG current change (%, negative = inhibition) at 1uM” value is listed as 3.44%.

For `CCC(C)NC(=O)c1nn(Cc2ccccc2)c(=O)c2ccccc12` (stereo not shown), the “hERG current change (%, negative = inhibition) at 1uM” value is recorded as 10.8%.

In the case of `Cc1cc([N+](=O)[O-])cnc1NC(C)c1ccccc1` (stereo not shown), the “hERG current change (%, negative = inhibition) at 1uM” value was 7.3%.

For `CCCNC(=O)Cn1c(=O)n(CC(=O)N2CCCCC2)c(=O)c2sccc21`, the “hERG current change (%, negative = inhibition) at 1uM” value is on record as 14.7%.

In the case of `Nc1cccc2c1C(=O)N(Cc1nnc(-c3ccccc3Br)o1)C2=O`, the “hERG current change (%, negative = inhibition) at 1uM” value is recorded as 8.68%.

In the case of `CCOC(=O)c1ccc(NC(=O)c2cccc(S(=O)(=O)N3CCN(C(C)=O)CC3)c2)cc1`, the “hERG current change (%, negative = inhibition) at 1uM” value was 10%.

For `CN(c1ccccc1)S(=O)(=O)c1ccc(Cl)c(C(=O)OCC(=O)N2CCOCC2)c1`, the “hERG current change (%, negative = inhibition) at 1uM” value is on record as -0.507%.

For `CCN(CC(=O)Nc1ccccc1OC)C(=O)/C=C/c1cccs1`, the “hERG current change (%, negative = inhibition) at 1uM” value is 2.76%.

In the case of `CN(Cc1ccccn1)C(=O)CC1C(=O)NCCN1Cc1ccc(F)cc1Cl` (stereo not shown), the “hERG current change (%, negative = inhibition) at 1uM” value came to 14.9%.

Regarding `O=[N+]([O-])c1cccc(C(=Nc2ccccc2)NO)c1`, the “hERG current change (%, negative = inhibition) at 1uM” value is given as 0.619%.

In the case of `C=CCN(CC=C)S(=O)(=O)c1ccc2nc(NC(=O)C(C)C)sc2c1`, the “hERG current change (%, negative = inhibition) at 1uM” value turned out to be 1.18%.

Turning to `COc1ccccc1/C=C/CN1CCC(CO)(Cc2ccccc2)CC1`, the “hERG current change (%, negative = inhibition) at 1uM” value came to 0.366%.

`CN(C)N1C(N)=C(C#N)C(c2ccc(Br)cc2)C2=C1CC(C)(C)CC2=O` (stereo not shown): the “hERG current change (%, negative = inhibition) at 1uM” value is given as 16.5%.

As for `O=[N+]([O-])c1ccc(O)c(/C=N/Nc2nn[nH]n2)c1`, the “hERG current change (%, negative = inhibition) at 1uM” value is given as 15.4%.

As for `O=C(Nc1ccc(F)c(Cl)c1)c1cc(-c2ccco2)on1`, the “hERG current change (%, negative = inhibition) at 1uM” value was found to be 8.91%.

For the compound `O=S(=O)(c1ccc(-c2ccon2)s1)N1CCOCC1`, the “hERG current change (%, negative = inhibition) at 1uM” value is listed as 10.6%.
